# Experimental data: PubChem BioAssay AID2546 (National Center for Advancing Translational Sciences (NCATS), 2010)
# About 11,000 (3.5%) of roughly 310,000 compounds were called active. Inconclusive means that the source gave no clear call. Such entries were picked first, then a sample of the others. Calls come from the whole dose curve; as a rule, active = well fitted inhibition curve with a large enough effect; inconclusive = small, poorly fitted or top-dose-only effect, or effect the other way; inactive = flat fitted curve, though single readings scatter. No potency is given beside an inconclusive call; the fits are too rough.
# Test: VP16 counterscreen qHTS for inhibitors of ROR gamma transcriptional activity;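 note: Gal4-VP16 expression switched on by copper sulfate through the metallothionein promoter; nearly all actives have a fitted effect of over 50% in size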
# Conditions: Drosophila S2 Gal4-VP16 UAS-luciferase, luminescence, 20 h; activity, negative = inhibition: at 53.6 µM (top of the series)
# % is set by controls: 0 for no effect and ±100 for the full control effect; potency is the fitted concentration of half-maximal effect; tags give direction and shape of the fitted curve.
Structure (SMILES),Potency,"activity, negative = inhibition"
O=C(/C=C/c1ccc(Br)cc1)c1ccco1,active: 11.2 µM,–
O=C(Nc1cc(C(F)(F)F)ccc1Cl)C(NCc1ccccc1)c1ccccc1 (centres undefined),"inconclusive [inhibitor, single point]",–
O=C(O)CCN1C(=O)c2ccc(Oc3ccc([N+](=O)[O-])cc3)cc2C1=O,"inconclusive [activator, single point]",–
CCOc1ccc(-c2nc(CSCC(=O)N3CCN(c4cccc(OC)c4)CC3)c(C)o2)cc1,active: 11.2 µM,–
O=C(O)c1ccc(-c2cccc([N+](=O)[O-])c2)o1,–,inactive: -5.97%
COc1cc(/C=C2/C(=O)ON=C2C)cc(Cl)c1O,"inconclusive [inhibitor, single point]",–
CN(C)CCN1C(=O)NC(C)(c2ccc([N+](=O)[O-])cc2)C1=O (centres undefined),–,inactive: -0.368%
COc1ccc(CC(=O)n2[nH]c(=O)cc(C)c2=O)cc1OC,"inconclusive [inhibitor, single point]",–
S=C(NCCc1ccc(Cl)cc1)NC1CCCCC1,active: 5.01 µM,–
CC1CCCN(Cc2c(O)ccc3c(=O)c(-c4nc5ccccc5s4)c(N)oc23)C1 (centres undefined),"inconclusive [inhibitor, single point]",–
C=CCn1c(C)cc(C(=O)COc2nncc3ccccc23)c1C,"inconclusive [inhibitor, single point]",–
COc1cnc(-c2ccccn2)nc1Oc1ccc(C(C)(C)C)cc1,active: 12.6 µM,–
Cc1ccc(C)c(N(C)C(=O)c2coc(=O)c3ccccc23)c1,–,inactive: 21.6%
CC(C)c1ccc(NC(=O)c2csnn2)cc1,"inconclusive [inhibitor, single point]",–
CCC(=O)NC(=S)Nc1ccccc1C(=O)NC1CCCCC1,"inconclusive [inhibitor, full curve, poor fit]",–
CC(Oc1cccc(F)c1)c1ccnc2nc(/N=C/N(C)C)nn12 (centres undefined),–,inactive: 12.9%
CC(NCc1ccc(OCc2ccc(Cl)cc2)cc1)C(O)c1ccccc1 (centres undefined),"inconclusive [inhibitor, single point]",–
CCOc1ccc(CNc2ccc3c(c2)ncn3C)cc1,"inconclusive [inhibitor, single point]",–
O=c1c2ccccc2nnn1CSc1ccccc1,"inconclusive [inhibitor, partial curve, poor fit]",–
Cc1nc2ccccc2n1CC(=O)NC1CCCCCC1,active: 20 µM,–
CCc1ccc2oc(-c3cc(N)ccc3O)nc2c1,active: 3.98 µM,–
COc1cccc(C(=O)C2CCCN(Cc3cccn3-c3ccccn3)C2)c1 (centres undefined),–,inactive: -9.27%
Cc1nn(-c2ccccc2)c(Cl)c1/C=C(\C#N)C(=O)NC(C)C,"inconclusive [inhibitor, single point]",–
Nc1nccs1,inactive,–
O=C(N/N=C/c1cc([N+](=O)[O-])ccc1O)c1cc(-c2ccccc2)nc2ccccc12,active: 3.98 µM,–
CC(=O)NC(=S)Nc1cc(C(F)(F)F)ccc1N1CCOCC1,"inconclusive [inhibitor, single point]",–
CSc1cccc(NC(=O)CCNC(=O)c2ccco2)c1,"inconclusive [activator, single point]",–

Structure (SMILES),Potency,"activity, negative = inhibition"
CCN(CC)Cc1nc2c(c(=O)[nH]1)C1(CCCC1)Cc1ccccc1-2,active: 11.2 µM,–
CN(NC(=O)Nc1ccc(Cl)cc1)c1c(Cl)c(Cl)nn1C,–,inactive: 4.55%
COc1ccc(Cl)cc1NC(=O)NNC(=O)c1ccccn1,active: 7.08 µM,–
CCOCc1nnc(NC(=O)CSCc2ccccc2)s1,"inconclusive [inhibitor, single point]",–
N#Cc1c(NC(=O)c2ccccc2)sc2c1CCCCC2,"inconclusive [inhibitor, partial curve, poor fit]",–
O=c1[nH]c(N/N=C/c2ccccc2)nc2ccccc12,"inconclusive [activator, partial curve]",–
CCN(CC)c1ccc(C(=O)OCC(=O)Nc2ccccc2-c2ccccc2)cc1,"inconclusive [inhibitor, single point]",–
Cc1nc(=O)c(-c2ccccc2)c(C)n1-c1ccc(Br)cc1,–,inactive: -1.26%
CCNc1ncc2nc(-c3cc(F)cc(F)c3)c(=O)n(CCOC)c2n1,–,inactive: -11.9%
CCOC(=O)c1c(NC(=O)c2cc(-c3ccc(Cl)s3)nc3ccccc23)sc(C(N)=O)c1C,"inconclusive [inhibitor, single point]",–
CN(C)CCCN(C(=O)CCS(=O)(=O)c1ccccc1)c1nc2cc3c(cc2s1)OCO3,active: 15.8 µM,–
O=C(O)C1CSC(c2ccc3c(c2)OCO3)N1 (centres undefined),"inconclusive [activator, single point]",–
O=C(NC1=NCCS1)c1sc2cc(Cl)cc(Cl)c2c1Cl,"inconclusive [inhibitor, single point]",–
CCCN1C=CC(=C2C(=O)c3ccccc3C2=O)C=C1,active: 0.251 µM,–
COc1nc(N(C)S(=O)(=O)c2ccc(C)cc2)nc(C)c1Br,–,inactive: -10.8%
CC(C)(C)OC(=O)NCCc1nnc(S(=O)(=O)Cc2ccc(Cl)cc2Cl)o1,active: 7.08 µM,–
O=C(c1noc2c1CCCC2)N1CCCC(N2CCN(c3ccccc3F)CC2)C1 (centres undefined),–,inactive: -0.677%
Cc1cc(C)c(C)c(Cn2c(CO)nc3ccccc32)c1C,"inconclusive [inhibitor, single point]",–
COc1ccc(C(=O)N2CCN(c3ccccc3)CC2)cc1S(=O)(=O)N1CCCC1,–,inactive: 5.96%
O=C(/C=C(/c1ccc(Cl)cc1)n1cncn1)c1ccccc1,–,inactive: -13%
Cc1ccn(CC(=O)NC2CCCN(Cc3ccc(CC(C)C)cc3)C2)n1 (centres undefined),–,inactive: -9.07%
Cc1ccc(-n2c(SCC(=O)OC(C)C)nnc2-c2ccco2)cc1,"inconclusive [inhibitor, single point]",–
COc1ccc(NC(=O)CSc2n[nH]c(CNc3cccc(C)c3)n2)cc1,–,inactive: -4.57%
COC(CNC(=O)c1ccc(N2CCc3ccccc32)c([N+](=O)[O-])c1)OC,active: 17.8 µM,–
COc1ccc(CNC(=S)Nc2ccccc2)cc1,active: 10 µM,–
COc1ccc2nc(NC(=O)CSc3nc(C)cc(=O)[nH]3)sc2c1,"inconclusive [inhibitor, single point]",–
O=C(N/N=C/c1cc(Br)ccc1OC(=O)c1ccc(Br)cc1)c1ccncc1,active: 5.01 µM,–

Structure (SMILES),Potency,"activity, negative = inhibition"
Cc1ccccc1NC(=S)N(Cc1ccco1)C(C)c1ccccn1 (centres undefined),"inconclusive [inhibitor, single point]",–
C=CC(=O)c1ccc(CCCCCC)cc1,–,inactive: -25.3%
Cc1cccc(N=C2NC(=O)/C(=C/c3cn(C)c4ccccc34)S2)c1,"inconclusive [inhibitor, single point]",–
C[C@H]1COC(=O)[C@H](Cc2ccccc2)NC(=O)[C@@H](C)COC(=O)[C@H](Cc2ccccc2)NC1=O,–,inactive: 9.1% [at 10 µM]
COc1ccc(-c2cc(C(=O)O)nc3ccc4ccccc4c23)cc1OC,"inconclusive [activator, single point]",–
O=C(NCc1ccc(Cl)cc1)c1ccc(Br)o1,inactive,–
CCCc1ccc(OCC(=O)NNC(=S)NC(=O)c2ccco2)cc1,"inconclusive [inhibitor, single point]",–
O=C(Cn1c2c(sc1=O)C1c3ccccc3OCC1CS2)Nc1ccc(Cl)c(Cl)c1 (centres undefined),"inconclusive [inhibitor, single point]",–
Cc1ccc(NC(=O)C2CCN(c3ncnc4c3nc3n4CCCCC3)CC2)nc1,"inconclusive [inhibitor, single point]",–
C/C(=N\OCc1ccc(C#N)cc1)c1ccc(S(=O)(=O)N(C)C)cc1,"inconclusive [inhibitor, single point]",–
Cc1csc(NC(=O)c2ccc(OCC3CCCO3)cc2)n1 (centres undefined),"inconclusive [inhibitor, single point]",–
C(=C\c1ccccc1)/CSc1nnc(-c2ccccc2)n1Cc1ccco1,"inconclusive [inhibitor, single point]",–
C[C@@H](NC(=O)c1nc[nH]c1C(=O)N[C@@H](Cc1ccccc1)C(=O)OC(C)(C)C)c1ccccc1,active: 7.08 µM,–
Cc1ccc(NC(=O)c2sc3ncnc(N4CCN(c5ccccn5)CC4)c3c2C)c(C)c1,–,inactive: 25.3%
NC(=O)NC(=O)COC(=O)CCCSc1nc2ccccc2s1,active: 8.91 µM,–
CNC(CC(=O)c1ccc([N+](=O)[O-])cc1)C(Cl)(Cl)Cl (centres undefined),active: 12.6 µM,–
Cc1nc(Cl)cc(N/N=C/c2ccc(O)cc2O)n1,"inconclusive [inhibitor, single point]",–
Cc1cccc(NC(=O)c2ccc3c(c2)OCCO3)n1,"inconclusive [inhibitor, single point]",–
O=C(N/N=C/C(Cl)=C/c1ccccc1)c1cnccn1,"inconclusive [activator, single point]",–
COCC(COCCCNC(=O)Nc1ccc(Br)cc1)OC (centres undefined),"inconclusive [inhibitor, single point]",–
Cc1ccc(C(=O)N/C(=C\c2ccccc2)C(=O)NCc2cccnc2)cc1,–,inactive: -3.87%
CCOC(=O)c1cnn(-c2cc(Oc3ccccc3)ncn2)c1N,–,inactive: 5.26%
COc1cc(/C=C/C(=O)N2CCN(c3ccccn3)CC2)cc(OC)c1OC,–,inactive: 0.626%
CCCCCCCC(=O)N/N=C(/C)c1c(O)cc(C)oc1=O,active: 22.4 µM,–
COc1ccc(/C=N/NC(=O)c2cccc(NC(=O)c3ccccc3)c2)c(C(=O)O)c1OC,"inconclusive [activator, single point]",–
